Reference: PubChem BioAssay AID2060613 (Molecular Pharmacology Branch, DTP, NCI, 2025)
A number of entries come with more than one value. The other results are left out here. The source may hold further records. Results that share an entry are repeats across runs, samples, wells, individuals or studies. Signs of the kind (2×) count equal records among those shown. Dates in brackets are months of testing.

System: 233499-124-R-J3-PDC complex spheroid viability
Experiment: Anticancer human tumor 233499-124-R-J3-PDC patient-derived colon adenocarcinoma cell line growth inhibition [CLK]
Settings: for viability, T/C: stronger effect = lower value
Description: A high-throughput screen of multi-cell type tumor spheroids was designed to identify active combinations of […] and targeted small molecules. Complex spheroids include a stromal component modeled by human endothelial cells (HUVEC) and fibroblasts modeled by human mesenchymal stem cells (MSCs). The concentration ranges selected for each drug and investigational agent were based upon clinically achievable concentrations if the clinical Cmax of the agent was known.
Compounds. The drugs and investigational agents: cirtuvivint (SM08502; NSC835563), CC-671 (NSC850746), vemurafenib (NSC761431), tapotoclax (NSC804041), sotorasib (NSC818433), adagrasib (NSC831453), MRTX-1133 (NSC836407), BAY2416964 (NSC825713), copanlisib (NSC816437), inavolisib (NSC800729), abemaciclib (NSC768073), osimertinib (NSC779217), entinostat (NSC756642), eltanexor (KPT-8602, NSC794443), venetoclax (NSC766270), ceralasertib (NSC777638), bortezomib (NSC756655), olaparib (NSC753686), talazoparib (NSC767125), alisertib (NSC759677), peposertib (NSC802822), gemcitabine (NSC613327), 5-fluorouracil (NSC19893), SN-38 (NSC673596), oxaliplatin (NSC266046), paclitaxel (NSC125973), and doxorubicin (NSC123127), were obtained from the National Cancer Institute (NCI) Developmental Therapeutics Program Chemical Repository. The FDA-approved anticancer drug set is available from the Developmental Therapeutics Program at https://dtp.cancer.gov/organization/dscb/obtaining/available plates.htm. […] The stock solutions were prepared in dimethyl sulfoxide (DMSO, Sigma-Aldrich, St. Louis, MO, cat. D2650), except for the platinum complexes which were prepared in saline (Quality Biological, Gaithersburg, MD, cat. 114-055-101), at 800-fold the tested concentration and stored at -70 degrees C prior to their use. All drugs and investigational agents were tested over a range starting from a high concentration at or near the clinical Cmax and decreasing in half-log increments. If the clinical Cmax for an agent had not been determined, the highest concentration tested was 10 microM.
Cell Culture. All cells were maintained in an incubator at 37 degrees C and 5% CO2 with 95% humidity. The PDC lines were cultured according to standard operating procedures established by the NCI PDMR. Briefly, all PDCs were thawed and cultured in Matrigel-coated flasks prepared with a working solution of 1X Ham's F-12 nutrient mix, without supplementation (Invitrogen, Waltham, MA, cat. 11765054), 100 U/mL penicillin-streptomycin (Invitrogen, cat. 15140122), and 2.5% Matrigel (Corning Inc., Corning, NY, cat. 354248) for the first three passages. The 947758-054-R-J2-PDC line was cultured in 6B/Colon 1A media, which includes advanced DMEM/F-12 (Thermo Fisher Scientific, cat. 12634028), 10 mM HEPES (Thermo Fisher Scientific, cat. 15630080), 1X GlutaMAX supplement (Thermo Fisher Scientific, cat. 35050061), 0.1 mg/mL primocin (InvivoGen, cat. ant-pm-2), 10% defined fetal bovine serum, heat inactivated (HyClone Laboratories Inc., cat. SH30070.03HI), 1.25 mM N-Acetyl-L-cysteine (Sigma-Aldrich, cat. A9165), 10 mM nicotinamide (Sigma-Aldrich, cat. N0636), 1X B-27 supplement (Thermo Fisher Scientific, cat. 17504044), 1X N-2 supplement (Thermo Fisher Scientific, cat. 17502048), and 10 microM Y-27632 dihydrochloride (Tocris Bioscience, cat. 1254). The 876862-298-R-J1-PDC was cultured in 6E media, which includes all 6B/Colon 1A media components plus 50% L-WRN conditioned media (ATCC, cat. CRL-3276), 50 ng/mL recombinant human EGF recombinant protein (hEGF; Thermo Fisher Scientific, cat. PHG0311), 10 ng/mL recombinant human fibroblast growth factor 10 (hGFG-10; PeproTech, cat. 100-26), 1 ng/mL recombinant human fibroblast growth factor 2 (hFGF-2; PeproTech, cat. 100-18B), and 1 µM prostaglandin E2 (PGE2; Tocris, cat. 2296). The 227483-062-R1-J1-PDC line was cultured in Panc media, containing all 6E components except hFGF-2, with the addition of 500 nM SB-431542 (Selleckchem, cat. S1067) and 10 nM gastrin (Tocris, cat. 3006). […]
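Note: spheroids exposed to the drug combinations for seven days.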
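Throughout, for viability, T/C: percent viability relative to DMSO vehicle control wells taken as 100%.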

IC50 (compound alone) | Structure (SMILES) | viability, T/C (compound alone 0.0316 µM) | viability, T/C (compound alone 0.1 µM) | viability, T/C (compound alone 0.316 µM) | viability, T/C (compound alone 1 µM)
 | CN1CCN(c2cc(C(=O)Nc3cc4cc(-c5cnn(C)c5)ccc4cn3)ccn2)CC1 | 111, 99.9, 92, 104, 101, 84.9, 96.8, 93.1, 92.1, 88, 80% | 102, 99.4, 103, 94.5, 106, 87.1, 98.3, 91.8, 93, 90.7, 78% | 99.7, 95.3, 87.4, 88.3, 88.7, 30.5, 95.7, 83.2, 91, 101, 89.7% | 
789 nM [2023-07] and 29.4 nM [2023-08] | CCc1c2c(nc3ccc(O)cc13)-c1cc3c(c(=O)n1C2)COC(=O)[C@]3(O)CC |  |  |  | 
 | CNC(=O)c1ccc(Nc2nc(OC3CCCC3)c3c(-c4ccc5nc(C)oc5c4)c[nH]c3n2)c(OC)c1 |  | 61.8, 68, 65.2, 66.7, 73.3, 83.3, 75.7, 69.1, 70.3, 65, 83, 55.6% |  | 69.8, 62.5, 69, 74.2 (2×), 86.9, 81.2, 70.9, 73.1, 69.5, 88, 78.7%
